Over roughly 1,800 sequences, “median log2 fold change of GCK-ALFA target abundance (FLAG IP / Myc IP barcode read proportion)” has its median near 0.14; the lowest 2% begin near -0.84. The list shows a part of the results.
T1: TRAF2, Q12933
T1 chain: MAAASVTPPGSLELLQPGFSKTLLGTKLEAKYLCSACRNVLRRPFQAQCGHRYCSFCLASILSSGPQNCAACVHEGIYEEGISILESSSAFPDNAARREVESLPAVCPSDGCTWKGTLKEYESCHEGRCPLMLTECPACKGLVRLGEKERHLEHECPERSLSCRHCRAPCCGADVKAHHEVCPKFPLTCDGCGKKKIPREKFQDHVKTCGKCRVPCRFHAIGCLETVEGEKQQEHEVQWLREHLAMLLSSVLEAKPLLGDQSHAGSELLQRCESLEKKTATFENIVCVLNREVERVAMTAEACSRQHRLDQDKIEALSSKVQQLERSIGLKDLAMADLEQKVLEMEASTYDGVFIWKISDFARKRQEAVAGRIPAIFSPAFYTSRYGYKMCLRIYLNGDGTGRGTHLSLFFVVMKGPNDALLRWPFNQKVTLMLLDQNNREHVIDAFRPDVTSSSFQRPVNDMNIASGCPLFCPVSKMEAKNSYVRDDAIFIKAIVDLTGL

B1: traf2_out_11_104_648 (protein)
chain: LSREQAREFNDFAMEQRDQALAIGKAVAAELKAAGETEQAAKLDAAINDPGTGISTIKNLLEELKPTLSPEMQKVADAAIAKLEALQKAVSQKLNELEAK
B2: traf2_out_18_117_1769 (protein)
chain: SARQEVIERLEALAEEVGAAASRLGKAVLENWDRLTPEERSAAMDVLADLSEVRREALLLIHEIREEGLPLEEAEKRAEELEKRAEEALAAADARLAAIA
B3: traf2_out_1_27_1012 (protein)
chain: SDEELTALIKEADRRIAEVDLERAKEIVKEAIRRAAELGEGDAVVLARTLVASELDEERAEAITEAALEAFRELGWPEEKIKELEEIFKSIIERTKKVLA
B4: traf2_out_5_63_2341 (protein)
chain: SEREELTALARRADRLVREMLEAAKAGDEEEVERLLEEAVADPELARLVLGILKAEERAYELSGDKEEEAKIAKELRERLEARLAARAAAEAAAAAAALA
B5: traf2_out_18_167_1885 (protein)
chain: SSELQKELEKASDELVRLSEIRRALKLALQALEKSREEALALIREKVKEFPDSEILKELLEVAETKSAEEVRAFMEEKIEELQKKANETYKKLEKLRKEL
B6: traf2_out_13_95_1079 (protein)
chain: SKEANEKIMEIANEMLEKTEEVLKELAKKVADNPEMKAAVEKALHLARTQGINAAIHLLEELAKANPEYKELLNAAIEKLKEIKREAGRKVAEILKEEEE
B7: traf2_out_14_17_1296 (protein)
chain: DILKKLEKIEKEAEELLKKYPELKLELGQLARKAESAKVLAEMYEEDPSYKPELIQALKNLEKLAKEVAEKAKPISKEAVKKLEKMAKEAKEIKKKVEAE
B8: traf2_out_17_162_1629 (protein)
chain: SPLEEREAELEKRLEEIEKKRKELEEKAKRIKELSKEELTDLLVEASEARREARELAEEIERLREEHDDPRLEELLKRAKELAEKFQRIANIFYKELEKK

Biological target: T1, TRAF2, Q12933
Assay: median log2 fold change of GCK-ALFA target abundance (FLAG IP / Myc IP barcode read proportion) (log2 ratio); each designed protein is fused to an ALFA-tag nanobody in HEK293 cells to bring the named protein to FLAG-tagged glucokinase (GCK); Myc marks an untargeted standard; higher = target protein stabilised (more abundant)
Conditions: target protein: 3xFLAG-MCP-GCK-ALFA reporter; HEK293 landing pad (RPLP)
Method in brief: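 Binders fused to an ALFA nanobody were recombined as a library into HEK293 landing-pad cells, which were induced with 2 μg mL^−1 doxycycline and then transfected to express a FLAG-tagged target and a Myc-tagged standard. After 48 h, circular RNA barcodes recovered by anti-FLAG and anti-Myc immunoprecipitation of lysates were reverse transcribed, amplified and sequenced. Each binder's target abundance is the median log2 ratio of FLAG to Myc barcode read proportions, from barcodes present at ≥10^−7 in both replicates, binders carrying ≥3 barcodes per replicate, a 10^−6 pseudocount and pooled replicates.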

Binder	median log2 fold change
B1	0.358
B2	0.14
B3	0.221
B4	0.56
B5	0.385
B6	-0.165
B7	0.323
B8	0.153

— the supplement of paper PMC12632987
